Assay [1] has as its target T1, FUT2 in PANC-1 cells (co-IP of Fig. 5B) (human (endogenous in PANC-1)) (UniProt Q10981).
T1 sequence: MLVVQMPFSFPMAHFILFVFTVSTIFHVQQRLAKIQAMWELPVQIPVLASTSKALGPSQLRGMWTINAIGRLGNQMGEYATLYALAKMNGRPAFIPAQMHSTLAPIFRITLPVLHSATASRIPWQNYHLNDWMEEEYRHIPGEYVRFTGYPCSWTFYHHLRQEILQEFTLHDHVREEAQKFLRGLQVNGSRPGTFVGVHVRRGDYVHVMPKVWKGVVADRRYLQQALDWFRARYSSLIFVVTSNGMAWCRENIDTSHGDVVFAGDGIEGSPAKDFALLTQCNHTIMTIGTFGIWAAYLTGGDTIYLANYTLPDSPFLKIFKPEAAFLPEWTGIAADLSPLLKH
Description: co-IP; KPC and PANC-1 cell lysates, indicated antibodies; Protein A/G Magnetic Beads for endogenous proteins; also with progressive FUT2 overexpression plus MG132 (Fig. 5G) and with shNT or shFUT2 (Fig. 5H).

By UniProt entry, the sequences of proteins in these tests, tags left out.
UniProt P63208: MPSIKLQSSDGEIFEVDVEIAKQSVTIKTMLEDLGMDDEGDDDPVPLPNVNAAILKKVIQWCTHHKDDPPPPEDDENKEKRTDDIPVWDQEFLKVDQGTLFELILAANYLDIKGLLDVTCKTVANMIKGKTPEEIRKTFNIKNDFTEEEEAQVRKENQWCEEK

The target in assay [2] is T2, NR2F2 in PANC-1 cells (human (endogenous in PANC-1)) (UniProt P24468).
T2 sequence: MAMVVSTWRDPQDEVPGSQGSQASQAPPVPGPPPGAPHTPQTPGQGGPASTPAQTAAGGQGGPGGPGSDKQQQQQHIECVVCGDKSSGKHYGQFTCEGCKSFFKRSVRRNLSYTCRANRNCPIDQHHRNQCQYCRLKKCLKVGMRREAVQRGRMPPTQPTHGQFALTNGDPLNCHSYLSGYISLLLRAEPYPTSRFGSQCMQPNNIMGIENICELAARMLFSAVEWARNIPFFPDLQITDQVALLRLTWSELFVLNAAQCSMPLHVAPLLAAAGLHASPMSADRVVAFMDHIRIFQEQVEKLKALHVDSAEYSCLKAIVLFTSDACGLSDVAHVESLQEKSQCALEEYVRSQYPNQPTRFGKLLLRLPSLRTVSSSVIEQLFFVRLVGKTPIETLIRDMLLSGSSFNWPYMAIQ
The description is as above.

The target of assay [3] is T3, FUT2-C-Flag (C-terminal fragment of FUT2, amino acids 173-343) (UniProt Q10981).
T3 sequence: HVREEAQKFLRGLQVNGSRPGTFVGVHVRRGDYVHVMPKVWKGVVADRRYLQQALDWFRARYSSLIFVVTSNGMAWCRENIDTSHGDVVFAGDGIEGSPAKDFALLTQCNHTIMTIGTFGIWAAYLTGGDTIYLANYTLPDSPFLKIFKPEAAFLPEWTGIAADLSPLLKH
Description: co-IP; HEK293T cells co-transfected with Flag- and HA-tagged constructs (with or without FUT2 in Fig. S5C); anti-Flag M2 magnetic beads with lysates at 4 °C for 4 h; immunoblotting. (A western blot detects proteins with antibodies after separation by electrophoresis.)

Assay [4] has as its target T4, FUT2-FL-Flag (full-length FUT2, amino acids 1-343) (UniProt Q10981).
T4 sequence: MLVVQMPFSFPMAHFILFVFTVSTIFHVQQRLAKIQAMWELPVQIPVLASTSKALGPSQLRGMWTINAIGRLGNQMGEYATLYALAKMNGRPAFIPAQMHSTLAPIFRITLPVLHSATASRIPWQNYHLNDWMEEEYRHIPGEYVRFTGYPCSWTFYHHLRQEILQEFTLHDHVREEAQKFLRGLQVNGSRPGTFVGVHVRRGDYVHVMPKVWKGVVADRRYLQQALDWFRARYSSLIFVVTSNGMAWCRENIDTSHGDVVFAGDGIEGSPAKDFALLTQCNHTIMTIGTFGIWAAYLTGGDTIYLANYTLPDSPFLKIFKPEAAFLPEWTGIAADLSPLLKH
The assay is described as above.

The target of assay [5] is T5, FUT2-N-Flag (N-terminal fragment of FUT2, amino acids 1-172) (UniProt Q10981).
T5 sequence: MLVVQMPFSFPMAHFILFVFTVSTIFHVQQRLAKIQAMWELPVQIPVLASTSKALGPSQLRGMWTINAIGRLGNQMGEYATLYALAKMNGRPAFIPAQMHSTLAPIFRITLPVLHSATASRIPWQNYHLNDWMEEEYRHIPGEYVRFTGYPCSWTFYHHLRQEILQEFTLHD
The description is as above.

For assay [6], the target named is T6, FUT2 of the in vitro binding assay (GST pulldown) (UniProt Q10981).
T6 sequence: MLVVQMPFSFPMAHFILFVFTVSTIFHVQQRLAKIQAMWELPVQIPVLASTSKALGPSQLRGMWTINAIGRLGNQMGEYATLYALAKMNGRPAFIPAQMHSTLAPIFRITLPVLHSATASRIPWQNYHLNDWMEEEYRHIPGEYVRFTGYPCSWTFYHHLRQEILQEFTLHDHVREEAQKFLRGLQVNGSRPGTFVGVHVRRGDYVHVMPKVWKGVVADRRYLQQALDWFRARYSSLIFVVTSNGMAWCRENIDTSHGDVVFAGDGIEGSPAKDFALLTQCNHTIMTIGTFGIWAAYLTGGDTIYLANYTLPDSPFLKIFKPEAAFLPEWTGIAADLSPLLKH
Description: pull-down; GST pulldown, 'in vitro binding assay'; the paper says 'directly'; which partner carried GST is not told in the text shown.

The target of assay [7] is T7, NR2F2 in KPC cells (mouse (endogenous in KPC)) (UniProt P43135).
T7 sequence: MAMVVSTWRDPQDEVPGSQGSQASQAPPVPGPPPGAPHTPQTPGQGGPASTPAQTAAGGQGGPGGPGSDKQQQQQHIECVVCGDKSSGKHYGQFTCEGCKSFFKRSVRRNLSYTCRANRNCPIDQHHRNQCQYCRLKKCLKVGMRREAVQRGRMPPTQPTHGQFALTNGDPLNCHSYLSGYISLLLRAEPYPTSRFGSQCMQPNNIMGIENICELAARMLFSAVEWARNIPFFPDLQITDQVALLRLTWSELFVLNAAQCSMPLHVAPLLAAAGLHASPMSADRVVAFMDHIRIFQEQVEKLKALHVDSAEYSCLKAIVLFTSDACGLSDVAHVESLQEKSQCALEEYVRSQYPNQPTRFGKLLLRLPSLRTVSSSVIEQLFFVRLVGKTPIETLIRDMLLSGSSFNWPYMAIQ
Put plainly: co-IP; KPC and PANC-1 cell lysates, indicated antibodies; Protein A/G Magnetic Beads for endogenous proteins; also with progressive FUT2 overexpression plus MG132 (Fig. 5G) and with shNT or shFUT2 (Fig. 5H).

Assay [8] concerns the target T8, Flag-tagged NR2F2 (UniProt P24468).
T8 sequence: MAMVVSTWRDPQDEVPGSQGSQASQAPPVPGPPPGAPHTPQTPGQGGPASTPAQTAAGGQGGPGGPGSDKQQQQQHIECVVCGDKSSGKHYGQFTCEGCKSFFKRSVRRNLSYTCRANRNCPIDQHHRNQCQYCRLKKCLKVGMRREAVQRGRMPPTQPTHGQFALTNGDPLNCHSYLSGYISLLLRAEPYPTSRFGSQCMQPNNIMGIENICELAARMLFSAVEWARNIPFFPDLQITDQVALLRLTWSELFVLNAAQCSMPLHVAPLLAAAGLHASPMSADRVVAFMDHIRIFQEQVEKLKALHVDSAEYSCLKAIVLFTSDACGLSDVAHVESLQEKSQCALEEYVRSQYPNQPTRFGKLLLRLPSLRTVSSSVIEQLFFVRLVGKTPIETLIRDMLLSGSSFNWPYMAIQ
Put plainly: co-IP; HEK293T cells co-transfected with Flag- and HA-tagged constructs (with or without FUT2 in Fig. S5C); anti-Flag M2 magnetic beads with lysates at 4 °C for 4 h; immunoblotting.

These are yes or no findings as the source states them, for the method shown. Binding seen in cells or lysates may run through a third protein. Some results given as binding are weak or reduced against the parent protein; the word gives no strength. For some assays here: Where a sequence is shown, tags or fusion partners need not be part of it.

Take “SKP1 in PANC-1 cells (from UniProt P63208 1-163)”: the binding entry in assay [1] and in assay [2] was “binds” throughout.

B1: NR2F2-HA (protein, UniProt P24468 1-414)
chain: MAMVVSTWRDPQDEVPGSQGSQASQAPPVPGPPPGAPHTPQTPGQGGPASTPAQTAAGGQGGPGGPGSDKQQQQQHIECVVCGDKSSGKHYGQFTCEGCKSFFKRSVRRNLSYTCRANRNCPIDQHHRNQCQYCRLKKCLKVGMRREAVQRGRMPPTQPTHGQFALTNGDPLNCHSYLSGYISLLLRAEPYPTSRFGSQCMQPNNIMGIENICELAARMLFSAVEWARNIPFFPDLQITDQVALLRLTWSELFVLNAAQCSMPLHVAPLLAAAGLHASPMSADRVVAFMDHIRIFQEQVEKLKALHVDSAEYSCLKAIVLFTSDACGLSDVAHVESLQEKSQCALEEYVRSQYPNQPTRFGKLLLRLPSLRTVSSSVIEQLFFVRLVGKTPIETLIRDMLLSGSSFNWPYMAIQ
For the molecule B1, the binding result in assay [3] is recorded as “no binding”; in assay [4], “binds”; in assay [5], “binds”.

B2: NR2F2 of the in vitro binding assay (GST pulldown) (protein, UniProt P24468 1-414)
chain: MAMVVSTWRDPQDEVPGSQGSQASQAPPVPGPPPGAPHTPQTPGQGGPASTPAQTAAGGQGGPGGPGSDKQQQQQHIECVVCGDKSSGKHYGQFTCEGCKSFFKRSVRRNLSYTCRANRNCPIDQHHRNQCQYCRLKKCLKVGMRREAVQRGRMPPTQPTHGQFALTNGDPLNCHSYLSGYISLLLRAEPYPTSRFGSQCMQPNNIMGIENICELAARMLFSAVEWARNIPFFPDLQITDQVALLRLTWSELFVLNAAQCSMPLHVAPLLAAAGLHASPMSADRVVAFMDHIRIFQEQVEKLKALHVDSAEYSCLKAIVLFTSDACGLSDVAHVESLQEKSQCALEEYVRSQYPNQPTRFGKLLLRLPSLRTVSSSVIEQLFFVRLVGKTPIETLIRDMLLSGSSFNWPYMAIQ
As for B2, the binding result in assay [6] is given as “binds”.

B3: FBXO2 in KPC cells (protein, UniProt Q80UW2 1-297)
chain: MDGDGDPESVSHPEEASPEEQPEEAGAEASAEEEQLREAEEEEEAEAVEYLAELPEPLLLRVLAELPATELVQACRLVCLRWKELVDGAPLWLLKCQQEGLVPEGSADEERDHWQQFYFLSKRRRNLLRNPCGEEDLEGWSDVEHGGDGWRVEELPGDNGVEFTQDDSVKKYFASSFEWCRKAQVIDLQAEGYWEELLDTTQPAIVVKDWYSGRTDAGSLYELTVRLLSENEDVLAEFATGQVAVPEDGSWMEISHTFIDYGPGVRFVRFEHGGQDSVYWKGWFGARVTNSSVWVEP
Consider B3, for which the binding entry in assay [7] is recorded as “binds”.

B4: FBXO2-HA (protein, UniProt Q9UK22 1-296)
chain: MDGDGDPESVGQPEEASPEEQPEEASAEEERPEDQQEEEAAAAAAYLDELPEPLLLRVLAALPAAELVQACRLVCLRWKELVDGAPLWLLKCQQEGLVPEGGVEEERDHWQQFYFLSKRRRNLLRNPCGEEDLEGWCDVEHGGDGWRVEELPGDSGVEFTHDESVKKYFASSFEWCRKAQVIDLQAEGYWEELLDTTQPAIVVKDWYSGRSDAGCLYELTVKLLSEHENVLAEFSSGQVAVPQDSDGGGWMEISHTFTDYGPGVRFVRFEHGGQDSVYWKGWFGARVTNSSVWVEP
In the case of B4, the binding result in assay [3] is reported as “binds”; in assay [4], “binds”; in assay [5], “no binding”; in assay [8], “binds”.

B5: FBXO2 in PANC-1 cells (protein, UniProt Q9UK22 1-296)
chain: MDGDGDPESVGQPEEASPEEQPEEASAEEERPEDQQEEEAAAAAAYLDELPEPLLLRVLAALPAAELVQACRLVCLRWKELVDGAPLWLLKCQQEGLVPEGGVEEERDHWQQFYFLSKRRRNLLRNPCGEEDLEGWCDVEHGGDGWRVEELPGDSGVEFTHDESVKKYFASSFEWCRKAQVIDLQAEGYWEELLDTTQPAIVVKDWYSGRSDAGCLYELTVKLLSEHENVLAEFSSGQVAVPQDSDGGGWMEISHTFTDYGPGVRFVRFEHGGQDSVYWKGWFGARVTNSSVWVEP
As to B5, the binding entry in assay [1] and in assay [2] was “binds” each time.

B6: FBXO2 of the in vitro binding assay (GST pulldown) (protein, UniProt Q9UK22 1-296)
chain: MDGDGDPESVGQPEEASPEEQPEEASAEEERPEDQQEEEAAAAAAYLDELPEPLLLRVLAALPAAELVQACRLVCLRWKELVDGAPLWLLKCQQEGLVPEGGVEEERDHWQQFYFLSKRRRNLLRNPCGEEDLEGWCDVEHGGDGWRVEELPGDSGVEFTHDESVKKYFASSFEWCRKAQVIDLQAEGYWEELLDTTQPAIVVKDWYSGRSDAGCLYELTVKLLSEHENVLAEFSSGQVAVPQDSDGGGWMEISHTFTDYGPGVRFVRFEHGGQDSVYWKGWFGARVTNSSVWVEP
In the case of B6, in assay [6], the binding entry is “binds”.

These data come from publication PMC12848027.
